Laboratory results taken from the antibiotic and cytotoxicity screens of Wong et al. (2023).
Some of the results follow.

These compounds were tested on HepG2 (assay: cytotoxicity call (relative viability < 0.9)). Settings: 10 µM.

SMILES	cytotoxicity call
O=C(C[C@H]1C=C[C@H](NS(=O)(=O)c2ccccc2)[C@@H](CO)O1)NCc1ccncn1	inactive
CCOC(=O)c1cc2c(c(-c3ccccc3)n1)[C@@H](CCO[Si](C)(C)C(C)(C)C)N([S@](=O)C(C)(C)C)C2	inactive
COCC(=O)Nc1ccc2c(c1)C(=O)N(C)C[C@H](OC)[C@H](C)CN(Cc1ccccc1OC)[C@H](C)CO2	inactive
C[C@@H]1CN([C@@H](C)CO)C(=O)c2cc(NC(=O)Nc3ccccc3)ccc2O[C@@H]1CN(C)S(=O)(=O)c1cn(C)cn1	inactive
CO[C@H]1CN(C)C(=O)c2cc(NC(=O)c3ccc(F)cc3)ccc2OC[C@H](C)N(C(=O)CN(C)C)C[C@@H]1C	inactive
C[C@H](CO)N1C[C@H](C)[C@@H](CN(C)C)Oc2ccc(NS(C)(=O)=O)cc2CC1=O	inactive
CC(C)NC(=O)N(C)C[C@H]1Oc2c(NC(=O)C3CCCCC3)cccc2C(=O)N([C@@H](C)CO)C[C@@H]1C	inactive
COc1ccc(S(=O)(=O)Nc2ccc3c(c2)CC(=O)N([C@H](C)CO)C[C@H](C)[C@@H](CN(C)S(C)(=O)=O)O3)cc1	inactive
C[C@@H]1CN([C@@H](C)CO)C(=O)c2cc(NC(=O)Nc3cccc4ccccc34)ccc2O[C@@H](C)CCCCO[C@H]1CN(C)Cc1ccc(Cl)c(Cl)c1	inactive
CCC1(c2ccccc2)NC(=O)N(C)C1=O (centres undefined)	inactive
C[C@H]1CN([C@@H](C)CO)C(=O)Cc2cc(NC(=O)CCN3CCOCC3)ccc2O[C@@H]1CN(C)Cc1ccc2c(c1)OCO2	inactive
C[C@@H]1CN([C@@H](C)CO)C(=O)c2cc(NC(=O)C3CCCCC3)ccc2O[C@@H]1CN(C)Cc1ccc(-c2ccccc2)cc1	active
C[C@@H]1CN([C@@H](C)CO)C(=O)c2cc(NC(=O)CCC(F)(F)F)ccc2O[C@@H]1CN(C)S(C)(=O)=O	inactive
COc1ccc(S(=O)(=O)N(C)C[C@@H]2Oc3ccc(N(C)C)cc3C(=O)N([C@@H](C)CO)C[C@@H]2C)cc1	inactive
Cc1noc(C)c1NC(=O)N[C@@H]1CC[C@H](CC(=O)N2CCN(C)CC2)O[C@H]1CO	inactive
CCCN(C)C[C@@H]1OCCCC[C@@H](C)Oc2ccc(NS(=O)(=O)c3cn(C)cn3)cc2C(=O)N([C@H](C)CO)C[C@@H]1C	inactive
C[C@@H]1CN([C@H](C)CO)C(=O)c2cccc(NC(=O)Nc3cccc4ccccc34)c2O[C@@H]1CN(C)Cc1ccc(-c2ccccc2)cc1	inactive
COC(=O)[C@H]1CN(C)CCC1=O	inactive
Cc1noc(C)c1NC(=O)N(C)C[C@@H]1OCCCC[C@H](C)Oc2ccc(NC(=O)C3CCCCC3)cc2C(=O)N([C@@H](C)CO)C[C@H]1C	inactive
CC(C)NC(=O)N[C@@H]1C=C[C@H](CC(=O)NCCN2CCCC2)O[C@H]1CO	inactive
CN(C)CC/C=C1/c2ccccc2Sc2ccc(Cl)cc21	active
CC(C)NC(=O)Nc1ccc2c(c1)C(=O)N([C@H](C)CO)C[C@@H](C)[C@@H](CN(C)Cc1ccc(-c3ccccc3)cc1)O2	inactive
Cc1noc(C)c1NC(=O)Nc1cccc2c1O[C@H](CN(C)Cc1ccc(-c3ccccc3)cc1)[C@H](C)CN([C@@H](C)CO)C2=O	inactive
C[C@H]1CN([C@@H](C)CO)C(=O)c2cc(Br)cnc2O[C@@H]1CN(C)Cc1cccc(C(=O)O)c1	inactive
COc1ccc(S(=O)(=O)Nc2cccc3c2O[C@@H](CN(C)Cc2ccc(Oc4ccccc4)cc2)[C@H](C)CN([C@H](C)CO)C3=O)cc1	inactive
C[C@@H]1CCCCO[C@H](CN(C)C(=O)Nc2ccc3c(c2)OCO3)[C@H](C)CN([C@H](C)CO)C(=O)c2cc(NS(=O)(=O)c3cccs3)ccc2O1	inactive
C[C@@H]1CN([C@H](C)CO)C(=O)c2cc(-c3cccnc3)cnc2O[C@@H]1CN(C)Cc1ccc(Oc2ccccc2)cc1	inactive
O=c1[nH]c(=O)n([C@H]2C[C@H](O)[C@@H](CO)O2)cc1C(F)(F)F	active
C[C@@H]1CCCCO[C@@H](CN(C)Cc2ccncc2)[C@H](C)CN([C@@H](C)CO)C(=O)c2cc(NS(C)(=O)=O)ccc2O1	inactive

The compounds below were run on S. aureus RN4220 (assay: growth inhibition call (relative growth <= 0.2)). Settings: 50 µM.

SMILES	growth inhibition call
COc1ccccc1NC(=O)N(C)C[C@H]1Oc2ncc(C#CCN(C)C)cc2C(=O)N([C@@H](C)CO)C[C@@H]1C	inactive
Cc1noc(C)c1S(=O)(=O)N(C)C[C@H]1Oc2ccc(NS(=O)(=O)c3ccc(F)cc3)cc2CC(=O)N([C@H](C)CO)C[C@H]1C	inactive
CC=Cc1ccc2n(c1=O)C[C@H]1[C@H](CO)[C@@H](C(=O)NC3CCC3)[C@@H]2N1S(=O)(=O)c1cn(C)cn1	inactive
COc1cccc(S(=O)(=O)N(C)C[C@@H]2Oc3ncc(C#CCN(C)C)cc3C(=O)N([C@@H](C)CO)C[C@@H]2C)c1	inactive
Nc1ccn(C2CSC(CO)O2)c(=O)n1 (centres undefined)	inactive
c1ccc(-c2nc(C34CC5CC(CC(C5)C3)C4)cs2)cc1	inactive
COc1ccc(S(=O)(=O)N(C)C[C@H]2Oc3cc(C#CC4CC4)ccc3S(=O)(=O)N([C@H](C)CO)C[C@@H]2C)cc1	inactive
COc1cc(/C=C/C(=O)OC[C@H]2O[C@@H](O[C@@H]3OC=C[C@H]4[C@H](O)[C@@H]5O[C@]5(CO)[C@@H]34)[C@H](O)[C@@H](O)[C@@H]2O)ccc1O	inactive
Cc1ccc(S(=O)(=O)N(C)C[C@@H]2Oc3ccc(N(C)C)cc3CC(=O)N([C@@H](C)CO)C[C@@H]2C)cc1	inactive
CCCNC(=O)Nc1ccc2c(c1)OC[C@@H](C)N(Cc1ccc(-c3ccccn3)cc1)C[C@H](C)[C@H](OC)CN(C)C2=O	inactive
C[C@@H]1CN([C@H](C)CO)C(=O)c2cc(NC(=O)c3ccncc3)ccc2O[C@@H](C)CCCCO[C@H]1CN(C)Cc1ccccc1	inactive
O=C(C[C@H]1C=C[C@H](NS(=O)(=O)c2ccccc2)[C@@H](CO)O1)NCc1ccncn1	inactive
CCOC(=O)c1cc2c(c(-c3ccccc3)n1)[C@@H](CCO[Si](C)(C)C(C)(C)C)N([S@](=O)C(C)(C)C)C2	inactive
COCC(=O)Nc1ccc2c(c1)C(=O)N(C)C[C@H](OC)[C@H](C)CN(Cc1ccccc1OC)[C@H](C)CO2	inactive
C[C@@H]1CN([C@@H](C)CO)C(=O)c2cc(NC(=O)Nc3ccccc3)ccc2O[C@@H]1CN(C)S(=O)(=O)c1cn(C)cn1	inactive
CO[C@H]1CN(C)C(=O)c2cc(NC(=O)c3ccc(F)cc3)ccc2OC[C@H](C)N(C(=O)CN(C)C)C[C@@H]1C	inactive
C[C@H](CO)N1C[C@H](C)[C@@H](CN(C)C)Oc2ccc(NS(C)(=O)=O)cc2CC1=O	inactive
CC(C)NC(=O)N(C)C[C@H]1Oc2c(NC(=O)C3CCCCC3)cccc2C(=O)N([C@@H](C)CO)C[C@@H]1C	inactive
COc1ccc(S(=O)(=O)Nc2ccc3c(c2)CC(=O)N([C@H](C)CO)C[C@H](C)[C@@H](CN(C)S(C)(=O)=O)O3)cc1	inactive
C[C@@H]1CN([C@@H](C)CO)C(=O)c2cc(NC(=O)Nc3cccc4ccccc34)ccc2O[C@@H](C)CCCCO[C@H]1CN(C)Cc1ccc(Cl)c(Cl)c1	inactive

SMILES	growth inhibition call
CCC1(c2ccccc2)NC(=O)N(C)C1=O (centres undefined)	inactive
C[C@H]1CN([C@@H](C)CO)C(=O)Cc2cc(NC(=O)CCN3CCOCC3)ccc2O[C@@H]1CN(C)Cc1ccc2c(c1)OCO2	inactive
C[C@@H]1CN([C@@H](C)CO)C(=O)c2cc(NC(=O)C3CCCCC3)ccc2O[C@@H]1CN(C)Cc1ccc(-c2ccccc2)cc1	inactive
C[C@@H]1CN([C@@H](C)CO)C(=O)c2cc(NC(=O)CCC(F)(F)F)ccc2O[C@@H]1CN(C)S(C)(=O)=O	inactive
COc1ccc(S(=O)(=O)N(C)C[C@@H]2Oc3ccc(N(C)C)cc3C(=O)N([C@@H](C)CO)C[C@@H]2C)cc1	inactive
Cc1noc(C)c1NC(=O)N[C@@H]1CC[C@H](CC(=O)N2CCN(C)CC2)O[C@H]1CO	inactive
CCCN(C)C[C@@H]1OCCCC[C@@H](C)Oc2ccc(NS(=O)(=O)c3cn(C)cn3)cc2C(=O)N([C@H](C)CO)C[C@@H]1C	inactive
C[C@@H]1CN([C@H](C)CO)C(=O)c2cccc(NC(=O)Nc3cccc4ccccc34)c2O[C@@H]1CN(C)Cc1ccc(-c2ccccc2)cc1	inactive
COC(=O)[C@H]1CN(C)CCC1=O	inactive
Cc1noc(C)c1NC(=O)N(C)C[C@@H]1OCCCC[C@H](C)Oc2ccc(NC(=O)C3CCCCC3)cc2C(=O)N([C@@H](C)CO)C[C@H]1C	inactive
CC(C)NC(=O)N[C@@H]1C=C[C@H](CC(=O)NCCN2CCCC2)O[C@H]1CO	inactive
CN(C)CC/C=C1/c2ccccc2Sc2ccc(Cl)cc21	inactive
CC(C)NC(=O)Nc1ccc2c(c1)C(=O)N([C@H](C)CO)C[C@@H](C)[C@@H](CN(C)Cc1ccc(-c3ccccc3)cc1)O2	inactive
Cc1noc(C)c1NC(=O)Nc1cccc2c1O[C@H](CN(C)Cc1ccc(-c3ccccc3)cc1)[C@H](C)CN([C@@H](C)CO)C2=O	inactive
C[C@H]1CN([C@@H](C)CO)C(=O)c2cc(Br)cnc2O[C@@H]1CN(C)Cc1cccc(C(=O)O)c1	inactive
COc1ccc(S(=O)(=O)Nc2cccc3c2O[C@@H](CN(C)Cc2ccc(Oc4ccccc4)cc2)[C@H](C)CN([C@H](C)CO)C3=O)cc1	inactive
C[C@@H]1CCCCO[C@H](CN(C)C(=O)Nc2ccc3c(c2)OCO3)[C@H](C)CN([C@H](C)CO)C(=O)c2cc(NS(=O)(=O)c3cccs3)ccc2O1	inactive
C[C@@H]1CN([C@H](C)CO)C(=O)c2cc(-c3cccnc3)cnc2O[C@@H]1CN(C)Cc1ccc(Oc2ccccc2)cc1	inactive
O=c1[nH]c(=O)n([C@H]2C[C@H](O)[C@@H](CO)O2)cc1C(F)(F)F	inactive
C[C@@H]1CCCCO[C@@H](CN(C)Cc2ccncc2)[C@H](C)CN([C@@H](C)CO)C(=O)c2cc(NS(C)(=O)=O)ccc2O1	inactive
